In PubChem BioAssay AID485344 (National Center for Advancing Translational Sciences (NCATS), 2010):
Out of some 340,000 compounds screened, about 6,900 (2%) were called active. Cut-off read from the data, not from the text of the source: active = inhibition above about 30%; inactive = below that, where a call was filed. Only a part is listed here, and it is no random draw. Where no call is shown, the source filed none.

molecular target: D(2) dopamine receptor (Homo sapiens) (UniProt P14416); experiment: HTS Assay for Allosteric Antagonists of the Human D2 Dopamine Receptor: Primary Screen for Antagonists; conditions: HEK293 TREx D2 cells, calcium flux, dopamine EC80; at 10 µM; stronger effect = higher value; note: 0% is about no effect
In short: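 Calcium flux kinetic readout in an inducible HEK293 TREx D2 line plated overnight at 30 C. After 180 s compound exposure, an EC80 dopamine challenge follows with another 180 s kinetic read to detect antagonism.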

Chain of UniProt P14416 (P14416 whole entry, looked up): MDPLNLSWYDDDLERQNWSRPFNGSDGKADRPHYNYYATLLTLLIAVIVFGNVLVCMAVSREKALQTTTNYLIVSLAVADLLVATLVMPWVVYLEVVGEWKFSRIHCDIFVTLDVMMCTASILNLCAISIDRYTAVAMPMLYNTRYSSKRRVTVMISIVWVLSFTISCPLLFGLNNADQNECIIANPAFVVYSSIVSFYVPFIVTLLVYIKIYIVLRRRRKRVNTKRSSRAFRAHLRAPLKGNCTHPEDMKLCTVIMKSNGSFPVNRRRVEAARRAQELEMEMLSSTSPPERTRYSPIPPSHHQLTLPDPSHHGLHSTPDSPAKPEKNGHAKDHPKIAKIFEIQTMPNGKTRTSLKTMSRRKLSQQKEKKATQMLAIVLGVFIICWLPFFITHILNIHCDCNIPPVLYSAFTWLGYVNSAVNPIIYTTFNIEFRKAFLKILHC

SMILES | inhibition
O=C(Nc1nnc(S(=O)(=O)N2CCCc3ccccc32)s1)c1cccc(Cl)c1 | 11.9%
COc1cccc(C2C(C(=O)Nc3ccc(C)cc3C)=C(C)Nc3c(C(=O)Nc4ccccc4)cnn32)c1 (stereo unspecified) | 14.2%
CCc1ccc(NC(=O)N2CCOc3ccc(Cl)cc32)cc1 | -10.5%
COc1cc(Cl)c(S(=O)(=O)NCCc2c(C)[nH]c3c(C)cccc23)cc1Cl | 8.08%
COC(=O)c1ccc(NC(=O)CC2C(=O)N(c3cccc(OC)c3)C(=O)N2Cc2cccs2)cc1 (stereo unspecified) | 6.51%
Cc1ccc(-c2nc(NC(=O)CSc3cc(C)c4ccccc4n3)ns2)cc1 | 19.1%
CCOC(=O)C1CCN(Cc2cnc(Oc3ccc(N)cc3)s2)CC1 | active: 67.1%
COc1ccccc1CNS(=O)(=O)c1ccc2c(c1)CC(C)N2C(C)=O (stereo unspecified) | 3.13%
O=C(NCc1ccccc1)c1ccc(CNS(=O)(=O)c2ccc(Br)cc2)cc1 | -4.15%
CC1CCN(S(=O)(=O)c2ccc3c(c2)N(CC(=O)NC(C)c2ccccc2)C(=O)CS3)CC1 (stereo unspecified) | 10.8%
O=C(Cc1cccs1)NCCCc1ccccc1 | active: 69.4%
CC(C)Cn1cc(NC(=O)N2CCN(c3cccc(Cl)c3)CC2)c2ccccc2c1=O | 1.98%
Cc1ccc(C)c(N2CCN(S(=O)(=O)c3ccc4[nH]c5c(c4c3)CCCCC5)CC2)c1 | 9.25%
Cc1ccc(CN2CCC(c3nc4ccc(Cl)cc4[nH]3)CC2)cc1 | active: 86.8%
CCN(CC)S(=O)(=O)c1ccc(NC=C(C#N)C#N)cc1 | active: 74.1%
COc1ccc(CCNC(=O)C(=O)Nc2ccccc2F)cc1 | -4.92%
COc1ccccc1C(=O)NCCn1cc(SCC(=O)Nc2ccccc2F)c2ccccc21 | 8.7%
Cc1ccc(CNC(=O)C(=O)Nc2c3c(nn2-c2ccccc2)CSC3)cc1 | 10%
CCOC(=O)C(=NCCCN(C)C)NNc1cc(C(F)(F)F)ccc1Cl | active: 35.2%
CCCCN(CC)C(=O)CSc1nc2n[nH]c(C)c2c(=N)n1-c1cccc(Cl)c1 | -19.5%
CCOC(=O)c1[nH]c(C)c(CCC(=O)N2CCN(c3cccc(OC)c3)CC2)c1C | -1.12%
CCOc1ccc(NC(=O)Cn2ncc3c2-c2cc(C)ccc2OC3)cc1 | 14.2%
Cc1ccc(NC(=O)Cc2ccc(-n3c(C)nc4cccnc43)cc2)c(Cl)c1 | 11.1%
CCC(=O)N1CCc2cc(Br)cc(S(=O)(=O)CCC(=O)NCc3ccccc3OC)c21 | -10.1%
CCO[C@H]1OC(C(=O)N2CCCCCCC2)=C[C@@H](c2ccc(C(F)(F)F)cc2)[C@@H]1CCCO | active: 30.3%
Cc1csc(NS(=O)(=O)c2cccc([N+](=O)[O-])c2)n1 | active: 34.3%
